# This is one part of the list.
# B1: Dectin-1 (Mus musculus), Q6QLQ4 (protein)
# chain: GHNSGRNPEEKDNFLSRNKENHKPTESSLDEKVAPSKASQTTGGFSQPCLPNWIMHGKSCYLFSFSGNSWYGSKRHCSQLGAHLLKIDNSKEFEFIESQTSSHRINAFWIGLSRNQSEGPWFWEDGSAFFPNSFQVRNTAPQESLLHNCVWIHGSEVYNQICNTSSYSICEKEL
# Columns and labels:
# Assay in all cases: glycan array binding signal (z-score within array); higher = stronger binding
# Conditions in all cases: glycan notation: IUPAC condensed, linker removed
# [1] = molecular target: Neu5Ac(a2-6)Gal(b1-4)GlcNAc(b1-3)Gal(b1-4)Glc
# Method in brief: (§1)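 Glycan array data were curated from 3228 arrays in the Consortium for Functional Glycomics database and kept only where the protein sequence was available. Glycan names were converted to IUPAC-condensed notation, and columns mapping to the same glycan were averaged. The binding signal is a within-array Z-score, averaged across arrays of the same protein sequence at different concentrations or buffers and across linkers. Negative Z-scores can be read as non-binding.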
# [2] = molecular target: Neu5Ac(a2-6)Gal(b1-4)GlcNAc(b1-3)Gal(b1-4)[Fuc(a1-3)]Glc
# Method in brief: as §1
# [3] = molecular target: Neu5Ac(a2-6)Gal(b1-4)GlcNAc(b1-3)[Neu5Ac(a2-6)Gal(b1-4)GlcNAc(b1-6)]Gal(b1-4)Glc
# Method in brief: as §1
# [4] = molecular target: Neu5Ac(a2-6)Gal(b1-4)GlcNAc(b1-6)[Gal(b1-3)GlcNAc(b1-3)]Gal(b1-4)Glc
# Method in brief: as §1
# [5] = molecular target: Neu5Ac(a2-6)Gal(b1-4)[Fuc(a1-3)]GlcNAc(b1-3)Gal(b1-4)Glc
# Method in brief: as §1
# [6] = molecular target: Neu5Ac(a2-8)Neu5Ac
# Method in brief: as §1
# [7] = molecular target: Neu5Ac(a2-8)Neu5Ac(a2-3)Gal(b1-3)GalNAc(b1-4)[Neu5Ac(a2-3)]Gal(b1-4)Glc
# Method in brief: as §1
# [8] = molecular target: Neu5Ac(a2-8)Neu5Ac(a2-3)Gal(b1-3)GalNAc(b1-4)[Neu5Ac(a2-8)Neu5Ac(a2-3)]Gal(b1-4)Glc
# Method in brief: as §1
# [9] = molecular target: Neu5Ac(a2-8)Neu5Ac(a2-3)Gal(b1-4)Glc
# Method in brief: as §1
# [10] = molecular target: Neu5Ac(a2-8)Neu5Ac(a2-3)[Gal(b1-3)GalNAc(b1-4)]Gal(b1-4)Glc
# Method in brief: as §1
# [11] = molecular target: Neu5Ac(a2-8)Neu5Ac(a2-3)[GalNAc(b1-4)]Gal(b1-4)Glc
# Method in brief: as §1
# [12] = molecular target: Neu5Ac(a2-8)Neu5Ac(a2-8)Neu5Ac
# Method in brief: as §1
# [13] = molecular target: Neu5Ac(a2-8)Neu5Ac(a2-8)Neu5Ac(a2-8)Neu5Ac
# Method in brief: as §1
# [14] = molecular target: Neu5Ac(a2-8)Neu5Ac(a2-8)Neu5Ac(a2-8)Neu5Ac(a2-8)Neu5Ac
# Method in brief: as §1
# [15] = molecular target: Neu5Ac(a2-8)Neu5Ac(a2-8)Neu5Ac(a2-8)Neu5Ac(a2-8)Neu5Ac(a2-8)Neu5Ac
# Method in brief: as §1
# [16] = molecular target: Neu5Ac(a2-8)Neu5Ac(a2-8)Neu5Ac(a2-8)Neu5Ac(a2-8)Neu5Ac(a2-8)Neu5Ac(a2-8)Neu5Ac
# Method in brief: as §1
# [17] = molecular target: Neu5Ac(a2-8)Neu5Ac(a2-8)Neu5Ac(a2-8)Neu5Ac(a2-8)Neu5Ac(a2-8)Neu5Ac(a2-8)Neu5Ac(a2-8)Neu5Ac
# Method in brief: as §1
# [18] = molecular target: Neu5Ac(a2-8)Neu5Ac(a2-8)Neu5Ac(a2-8)Neu5Ac(a2-8)Neu5Ac(a2-8)Neu5Ac(a2-8)Neu5Ac(a2-8)Neu5Ac(a2-8)Neu5Ac
# Method in brief: as §1
# [19] = molecular target: Neu5Ac(a2-8)Neu5Ac(a2-8)Neu5Ac(a2-8)Neu5Ac(a2-8)Neu5Ac(a2-8)Neu5Ac(a2-8)Neu5Ac(a2-8)Neu5Ac(a2-8)Neu5Ac(a2-8)Neu5Ac
# Method in brief: as §1
# [20] = molecular target: Neu5Ac(a2-8)Neu5Ac(a2-8)Neu5Ac(a2-8)Neu5Ac(a2-8)Neu5Ac(a2-8)Neu5Ac(a2-8)Neu5Ac(a2-8)Neu5Ac(a2-8)Neu5Ac(a2-8)Neu5Ac(a2-8)Neu5Ac
# Method in brief: as §1
# [21] = molecular target: Neu5Ac(b2-3)Gal(b1-4)Glc
# Method in brief: as §1
# [22] = molecular target: Neu5Ac(b2-6)Gal(b1-4)Glc
# Method in brief: as §1
# [23] = molecular target: Neu5Ac9Ac(a2-6)Gal(b1-4)GlcNAc
# Method in brief: as §1
# [24] = molecular target: Neu5Gc(a2-3)Gal(b1-4)Glc
# Method in brief: as §1
# [25] = molecular target: Neu5Gc(a2-3)[GalNAc(b1-4)]Gal
# Method in brief: as §1
# [26] = molecular target: Neu5Gc(a2-6)Gal(b1-4)GlcNAc(b1-2)Man(a1-3)[Neu5Gc(a2-6)Gal(b1-4)GlcNAc(b1-2)Man(a1-6)]Man(b1-4)GlcNAc(b1-4)GlcNAc
# Method in brief: as §1
# [27] = molecular target: Xyl(a1-6)Glc(b1-4)[Xyl(a1-6)]Glc(b1-4)[Xyl(a1-6)]Glc(b1-4)Glc
# Method in brief: as §1
# [28] = molecular target: Xyl(b1-2)[Man(a1-3)][Man(a1-6)]Man(b1-4)GlcNAc(b1-4)GlcNAc
# Method in brief: as §1
# [29] = molecular target: Xyl(b1-2)[Man(a1-3)][Man(a1-6)]Man(b1-4)GlcNAc(b1-4)[Fuc(a1-3)]GlcNAc
# Method in brief: as §1
# [30] = molecular target: Xyl(b1-4)Xyl(b1-4)Xyl(b1-4)Xyl(b1-4)Xyl
# Method in brief: as §1
# [31] = molecular target: Xyl(b1-4)Xyl(b1-4)Xyl(b1-4)Xyl(b1-4)Xyl(b1-4)Xyl
# Method in brief: as §1
binder,measurement,setting,value
B1,glycan array binding signal (z-score),[1],-0.08
same,glycan array binding signal (z-score),[2],-0.091
same,glycan array binding signal (z-score),[3],-0.091
same,glycan array binding signal (z-score),[4],-0.08
same,glycan array binding signal (z-score),[5],-0.08
same,glycan array binding signal (z-score),[6],-0.028
same,glycan array binding signal (z-score),[7],-0.091
same,glycan array binding signal (z-score),[8],-0.091
same,glycan array binding signal (z-score),[9],-0.091
same,glycan array binding signal (z-score),[10],-0.091
same,glycan array binding signal (z-score),[11],-0.091
same,glycan array binding signal (z-score),[12],-0.038
same,glycan array binding signal (z-score),[13],-0.029
same,glycan array binding signal (z-score),[14],-0.085
same,glycan array binding signal (z-score),[15],-0.091
same,glycan array binding signal (z-score),[16],-0.075
same,glycan array binding signal (z-score),[17],-0.083
same,glycan array binding signal (z-score),[18],-0.046
same,glycan array binding signal (z-score),[19],-0.067
same,glycan array binding signal (z-score),[20],-0.005
same,glycan array binding signal (z-score),[21],-0.091
same,glycan array binding signal (z-score),[22],-0.091
same,glycan array binding signal (z-score),[23],-0.067
same,glycan array binding signal (z-score),[24],-0.091
same,glycan array binding signal (z-score),[25],-0.011
same,glycan array binding signal (z-score),[26],-0.091
same,glycan array binding signal (z-score),[27],-0.053
same,glycan array binding signal (z-score),[28],-0.091
same,glycan array binding signal (z-score),[29],-0.089
same,glycan array binding signal (z-score),[30],-0.082
same,glycan array binding signal (z-score),[31],-0.135
